Source: patent US11517019B2, “Microbicidal system” (priority 2020, dated 2022)

Test: Dissolution of CX powder in 140° F. municipal water
Conditions: 50 mg CX in 1 L water at 140° F. with stirring
Method: The amount of added CX was twice the expected amount needed to reach saturation.
For chlorhexidine in its basic form, i.e., without the presence of acids, the published data on saturation levels in water vary widely, with reported values of 10, 26, 61 and even 800 mg/L (ppm) when measured at ambient temperature. Moreover, it is well known that hot water dissolves small molecules to a greater degree than does water at room temperature, because of the greater energy in heat. To test the expected lifetime of CX crystals in the present invention, six 50 mg aliquots of pure CX powder were exposed to 1 liter each of 140° F. (60° C.) municipal water for respective time periods of 0 seconds, 10 seconds, 30 seconds, 90 seconds, 300 seconds, and 1,200 seconds, then the remaining solid CX was removed and the CX concentration in the water was determined. […] This represented just under 2 weight percent of the powder in each case, and no more than that dissolved even with 20 minutes of exposure.

N=C(NCCCCCCNC(=N)NC(=N)Nc1ccc(Cl)cc1)NC(=N)Nc1ccc(Cl)cc1 [CX, N,N″″1,6-Hexanediylbis[N-(4-chlorophenyl) (imidodicarbonimidic diamide)]]
time to reach near-equilibrium saturation levels: ≤ 30 s
final concentration of CX in water (at 20 minutes): 0.82 mg/L
